Columns and labels:
HBV = experiment: Virus neutralizing capacity in PXB cells, HBs and HBe antigen level (Example 7); type: cell-based, hepatitis B virus (HBV); settings: 0.01 to 100 μg/mL, 9th day after HBV inoculation
Protocol: To a 96-well (flat-bottom) plate, PXB cells (PhoenixBio, Hiroshima, Japan) were seeded at a density of 7×10^4 cells/well, and cultured in 65 μL of dHCGM medium (DMEM supplemented with 10% FBS, 20 mM HEPES, 44 mM NaHCO3, 100 U/mL penicillin, 100 μg/mL streptomycin, 15 μg/mL L-proline, 0.25 μg/mL insulin, 50 nM dexamethasone, 5 ng/mL EGF, 0.1 mM Asc-2P, 2% DMSO) under the condition of 37° C. and 5% CO2 (Day 0). Day 1 and 3 after initiation of culture, medium exchange was carried out. On Day 8, the medium was exchanged with a medium containing an antibody (60 μL). The medium that contained an antibody contained dHCGM medium (54 μL), 2% DMSO, PBS (−) and normal mouse IgG (FUJIFILM Wako Pure Chemical Corporation, Tokyo, Japan) serving as a negative control, or a recombinant N6HB426 human chimeric IgG4 antibody serving as a test group. The normal mouse IgG was added in a concentration of 100 μg/mL. The recombinant N6HB426 human chimeric IgG4 antibody was added in a concentration of 0.01 μg/mL, 0.1 μg/mL, 1 μg/mL, 10 μg/mL or 100 μg/mL. […] On the 9th day (day 17) after HBV inoculation, the culture supernatant was collected and measured for HBs antigen level and HBe antigen level.

[1] = biological target: T1, epitope region-containing peptide fragment (AFPPEVIGPLFFFPLLYMIFQLGEG-biotin) (Homo sapiens, UniProt Q14973); experiment: Surface plasmon resonance assay (BIAcore) of antigen binding affinity
T1 sequence (Q14973 273-297 limits assumed): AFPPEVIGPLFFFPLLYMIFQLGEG
Protocol: In short, a carboxymethylated dextran biosensor chip (CM5, BIAcore Inc.) was activated by N-ethyl-N′-(3-dimethylaminopropyl)-carbodiimide hydrochloride (EDC) and N-hydroxysuccinimide (NHS) in accordance with the provider's instruction. An anti-mouse IgG antibody was diluted with 10 mM sodium acetate (pH5.2) up to 30 μg/ml. The dilution was injected at a flow rate of 5 to 10 μl/minute such that the reaction unit (RU) of the protein bound became 9,000 to 14,000 RU. In contrast, an anti-human IgG antibody was diluted with 10 mM sodium acetate (pH5.0) up to 25 μg/ml. The diluted antibody was injected at a flow rate of 5 to 10 μl/minute such that the reaction unit (RU) of the protein bound became 9,000 to 14,000 RU. After injection of each of the anti IgG antibodies, 1 M ethanolamine was injected in order to block unreactive groups. For kinetic measurement, N6HB426 antibody diluted with a running buffer (HBS-P: 10 mM HEPES pH7.5, 150 mM NaCl, 0.005% NP40) up to 10 μg/ml was immobilized onto CM5 chip via the anti-mouse IgG antibody, in advance. To the chip, a solution of an epitope region-containing peptide fragment ([…]-biotin: SEQ ID NO: 24) diluted with the running buffers at different concentrations was added at 25° C. at a flow rate of 10 μl/minute for 2 minutes. In contrast, the recombinant N6HB426 human chimeric IgG4 antibody was diluted with the running buffer up to 10 μg/ml and then was immobilized onto a sensor chip (CM5) via the anti-human IgG antibody in advance. […]
The refractive index of the solution varied in correlation to the mass of a chip surface changed when a peptide fragment molecule bound to N6HB426 antibody on the sensor chip, was monitored in real-time. Using simple one-to-one Langmuir binding model (BIAcore Evaluation software version 3.1) by fitting sensor grams of antigen-antibody association and dissociation at the same time, association rate (Ka) and dissociation rate (Kd) were calculated. A Kd/Ka ratio was calculated to obtain an equilibrium dissociation constant (KD).

[2] = test system: Daudi-human NTCP transfectant; experiment: ADCC activity (calcein-AM release, KHYG-1 FcγRIII effector cells); type: cell-based; settings: 0.01, 0.1, 1, or 10 μg/ml; E:T 10:1; FIG. 14
human NTCP = biological target: T2, human NTCP (Homo sapiens, UniProt Q14973); experiment: In-vitro bile acid transporter activity, HepG2-human NTCP cell line (Example 5); type: cell-based; settings: 1000 nM; FIG. 13
T2 construct: expressed in transfected cells; host or cells: HepG2 cells, lentiviral transduction
T2 sequence (Q14973 1-349): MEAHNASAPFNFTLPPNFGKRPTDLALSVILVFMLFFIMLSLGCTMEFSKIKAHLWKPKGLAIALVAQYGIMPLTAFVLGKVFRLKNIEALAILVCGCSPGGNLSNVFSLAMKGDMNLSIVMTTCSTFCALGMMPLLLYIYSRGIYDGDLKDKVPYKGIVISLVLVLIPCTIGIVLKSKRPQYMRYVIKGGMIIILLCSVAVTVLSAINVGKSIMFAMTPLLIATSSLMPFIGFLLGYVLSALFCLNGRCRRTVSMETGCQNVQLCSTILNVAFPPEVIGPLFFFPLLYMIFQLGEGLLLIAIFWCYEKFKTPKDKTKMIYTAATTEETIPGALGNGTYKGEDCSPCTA

[3] = 25° C., antibody immobilized on CM5 chip

B1: Recombinant N6HB426 human chimera IgG4 antibody: constant region of N6HB426-20 antibody replaced with human IgG4 constant region; heavy chain SEQ ID NO: 21, light chain SEQ ID NO: 24 (antibody)
heavy: QVQLQQSGAELVKPGASVKLSCKASDFTFTEYTIHWIKQMSGQGLEWIGWFYPGSGDIKYSEKFKDKATLTADKSSSTVYMELNRLTSEDSAVYFCARHMRDFRGFYYGRFYFDYWGQGTTLTVSSASTKGPSVFPLAPCSRSTSESTAALGCLVKDYFPEPVTVSWNSGALTSGVHTFPAVLQSSGLYSLSSVVTVPSSSLGTKTYTCNVDHKPSNTKVDKRV[letters of human IgG4 Fc not shown]
light: EIVLTQSPAIMSASPGEKVTITCRASSSVSSSYLHWYQQKSGVSPKLWIYSTSNLASGVPARFSGSGSGTSYSLTINSVEAEDAATYYCQQYSGYRWTFGGGTTLEIKRTVAAPSVFIFPPSDEQLKSGTASVVCLLNNFYPREAKVQWKVDNALQSGNSQESVTEQDSKDSTYSLSSTLTLSKADYEKHKVYACEVTHQGLSSPVTKSFNRGEC
modifications: Heavy chain of human chimera antibody; Light chain of human chimera antibody
HBs antigen level (HBV; FIG. 15): decreases in a dose-dependent manner | HBe antigen level (HBV; FIG. 16): decreases in a dose-dependent manner | Kd [1]: ~0.1 nM | Ka (1/Ms) association rate [1, 3]: 1339 M⁻¹ s⁻¹ | Kd (1/s) dissociation rate [1, 3]: 1.73e-07 s⁻¹ | ADCC activity [2]: not detected | bile acid uptake ([3H]-taurocholic acid) suppression (human NTCP): not suppressed

From patent US12497461B2, “Human NTCP-binding antibody capable of inhibiting infection of hepatitis B virus (HBV) to human hepatocytes” (priority 2019, dated 2025)
